Laboratory results: PubChem BioAssay (Tox21)
Where “and” joins values, the source holds several entries; their conditions need not be identical. Equal entries are not always repeated. The inconclusive results got no clear call from the source; some entries with a clear call stand among them for comparison. For some assays here: Where the call is inconclusive, the potency comes from a doubtful curve fit. A structure can be active in one record and inactive in another. Calls of active or inactive are those of the source. Unless noted, calls follow the shape of the dose curve; as a rule, active = well fitted curve in the direction sought with a large enough effect in the repeat runs; inconclusive = weak or mixed curves; inactive = no such curve, though single readings can be large; an effect the other way counts as inactive or inconclusive.

Key:
[1] = target: Peroxisome proliferator-activated receptor gamma (Homo sapiens) (UniProt P37231); test: qHTS assay to identify small molecule agonists of the peroxisome proliferator-activated receptor gamma (PPARg) signaling pathway (AID 743094; active = well fitted activation curve with a large enough effect in the signal ratio in the repeat runs, not every such curve was filed as active; inconclusive = weak or mixed curves, or effect the other way; inactive = no such curve, though single readings can be large or run the other way; the % refers to the signal ratio; also: potency is read from the fitted curve at half-maximal effect; as to activation: % is scaled to controls: 0 for no effect and ±100 for the full control effect); conditions: HEK293H PPARg-UAS-bla, beta-lactamase FRET ratio, 17 h; activation: at 57 µM (top of the series) unless noted
Outline: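 Quantitative HTS agonist mode: stable HEK293H line with UAS-beta-lactamase reporter under PPARg control, 17 h compound exposure at 37C, fluorescence after 1 h FRET substrate loading at room temperature.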

[2] = qHTS assay to identify small molecule antagonists of the peroxisome proliferator-activated receptor gamma (PPARg) signaling pathway - cell viability counter screen (AID 743194); conditions: PPARg-bla HEK293H viability, CellTiter-Glo luminescence, 17 h; Potency: co-treated with 50 nM rosiglitazone unless noted; activity change, negative = cytotoxicity: at 62.6 µM (top of the series), co-treated with 50 nM rosiglitazone unless noted; also: nearly all actives have a fitted effect of over 55% in size; also: potency is read from the fitted curve at half-maximal effect
Outline: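 Cytotoxicity counter screen in PPARg-bla HEK293H cells, same wells as reporter assay. Compounds plus 50 nM rosiglitazone (final) for 17 h at 37 C, then viability read by CellTiter-Glo luminescence.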

[3] = qHTS assay to identify small molecule agonists of the peroxisome proliferator-activated receptor delta (PPARd) signaling pathway - cell viability counter screen (AID 743211); conditions: PPARd-bla HEK293H viability, CellTiter-Glo luminescence, 17 h; activity change, negative = cytotoxicity: at 62.6 µM (top of the series); also: nearly all actives have a fitted effect of over 55% in size; also: potency is read from the fitted curve at half-maximal effect; as to activity change, negative = cytotoxicity: % is scaled to controls: 0 for no effect and ±100 for the full control effect
Outline: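 Viability was measured as CellTiter-Glo luminescence (30 min, room temperature) in the same wells as the beta-lactamase readout. GeneBLAzer PPARd UAS-bla HEK293H cells received compound after 5 h plating and were incubated 17 h at 37 C.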

[4] = qHTS assay to identify small molecule antagonists of the estrogen related receptor signaling pathway with the pleiotropic PPARgamma coactivator (PGC) from Tox21 10K library (AID 1224841; call rule not given here; also: actives are mostly falling curves and most rising ones were filed inactive; nearly all actives have a fitted effect of over 50% in size; also: potency is read from the fitted curve at half-maximal effect)
Outline: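 Antagonism in this quantitative HTS is taken from loss of luciferase signal in PGC/ERR cells. Cells (2,000/well) are treated with compounds in DMSO after a 6 h settling period and read by One-Glo luminescence after 18 h.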

[5] = qHTS assay to identify small molecule antagonists of the estrogen receptor alpha (ER-alpha) signaling pathway using the BG1 cell line (AID 743080; calls by dose curve;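 also: BG1 cells stimulated with 17beta-estradiol alongside compound; nearly all actives have a fitted effect of over 25% in size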; also: potency is read from the fitted curve at half-maximal effect; as to activity change, negative = inhibition: % is scaled to controls: 0 for no effect and ±100 for the full control effect); conditions: BG1Luc4E2 ERE-luciferase antagonist mode, luminescence; activity change, negative = inhibition: at 70.3 µM (top of the series) unless noted
Outline: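 Endogenous full-length ER-alpha in BG1-Luc-4E2 cells drives a stably integrated 4×ERE luciferase gene; compounds were tested against 17beta-estradiol over 21.5 h, with luminescence and multiplexed viability fluorescence recorded.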

[6] = qHTS assay to identify small molecule antagonists of the sonic hedgehog signaling (Shh) pathway - cell viability counter screen (AID 1259367); also: nearly all actives have a fitted effect of over 55% in size; also: potency is read from the fitted curve at half-maximal effect
Outline: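 NIH/3T3-derived Gli1-Luc reporter cells, 2,000/well, plated 4 hr before compound addition, then stimulated with conditioned medium for 24 hr at 37C. Viability measured in the same wells by CellTiter-Fluor fluorescence, reagent added at 23 hr for 1 hr.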

[7] = Human pregnane X receptor (PXR) small molecule agonists, qHTS cell viability counter screen (AID 1346977); also: nearly all actives have a fitted effect of over 50% in size; also: potency is read from the fitted curve at half-maximal effect; as to activity change, negative = cytotoxicity: % is scaled to controls: 0 for no effect and ±100 for the full control effect
Outline: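 Same-well viability read: CellTiter-Fluor added after 23 hr compound exposure, fluorescence measured 1 hr later. Cells were PXR-Luc HepG2 seeded at 2,000/well in 5% charcoal-stripped FBS medium, rested 5 hr before dosing at 37 C.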

[8] = qHTS assay to identify small molecule antagonists of the androgen receptor (AR) signaling pathway - cell viability counter screen (AID 743033; also: nearly all actives have a fitted effect of over 45% in size; also: potency is read from the fitted curve at half-maximal effect)
[9] = target: Aryl hydrocarbon receptor (Homo sapiens) (UniProt P35869); test: qHTS assay to identify small molecule that activate the aryl hydrocarbon receptor (AhR) signaling pathway (AID 743085); also: potency is read from the fitted curve at half-maximal effect; nearly all actives have a fitted effect of over 15% in size
Outline: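 Luminescence (ONE-Glo) from a dioxin-responsive-element luciferase reporter in HG2L7.5c1 HepG2 cells after 24 hr compound exposure at 37C; viability measured by CellTiter-Fluor fluorescence beforehand.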

[10] = A CellTox Green Cytotoxicity Assay to monitor cytotoxicity in HepG2 cells - 32 hour (AID 1224883); also: potency is read from the fitted curve at half-maximal effect; nearly all actives have a fitted effect of over 50% in size
Outline: (§1)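 Real-time, homogeneous cytotoxicity readout: dead-cell DNA staining by CellTox Green in HepG2 monolayers, fluorescence measured at timed intervals up to 40 h of continuous compound exposure.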

[11] = target: Acetylcholinesterase (Homo sapiens) (UniProt P22303); test: Acetylcholinesterase (AChE) small molecule antagonists: fluorescence cell-based qHTS assay (AID 1347398; calls by dose curve; also: potency is read from the fitted curve at half-maximal effect; nearly all actives have a fitted effect of over 50% in size); conditions: Potency: AChE activity
Outline: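 SH-SY5Y cells (2000/well), attached overnight, incubated with compound 30 min at 37 C. Acetylthiocholine plus Thiolite Green then added for 40 min at room temperature. Thiocholine fluorescence (Ex/Em 490/520 nm) reports cellular AChE activity.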

[12] = qHTS assay to identify small molecule agonists of H2AX (AID 1224845; active = well fitted activation curve with a large enough effect in the signal ratio in the repeat runs, not every such curve was filed as active; inconclusive = weak or mixed curves; the % refers to the signal ratio; also: potency is read from the fitted curve at half-maximal effect); conditions: CHO-K1 phospho-H2AX Ser139 HTRF, 3 h; activation (H2AX phosphorylation): at 154 µM (top of the series) unless noted
Outline: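 Wild-type CHO-K1 cells, plated overnight, exposed 3hr at 37C to 15 concentrations (0.76% DMSO final). Lysed, then HTRF anti-pH2AX (S139) cryptate and anti-H2AX-d2 antibodies, 24 hr room temperature; 665/620 nm emission read.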

[13] = qHTS assay to identify small molecule agonists of the sonic hedgehog signaling (Shh) pathway - cell viability counter screen (AID 1259366); also: nearly all actives have a fitted effect of over 50% in size; also: potency is read from the fitted curve at half-maximal effect
Outline: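 Cytotoxicity counter screen: CellTiter-Fluor reagent added after 23 h compound exposure, then 1 h at 37C and fluorescence read. Cells were 3T3 Gli1-Luc, seeded 2,000 per well and dosed 4 h post-plating.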

[14] = Caspase-3/7 induction in HepG2 cells by small molecules, qHTS cell viability counter screen (AID 1346981); also: nearly all actives have a fitted effect of over 30% in size; also: potency is read from the fitted curve at half-maximal effect
Outline: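 Steps: seed 2,000 HepG2 cells per well; incubate 5 hr at 37 C; pin-add compounds in DMSO; incubate 16 hr; add CellTiter-Fluor; after 1 hr at 37 C and 5% CO2, read fluorescence.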

[15] = A CellTox Green Cytotoxicity Assay to monitor cytotoxicity in HepG2 cells - 40 hour (AID 1224879); also: nearly all actives have a fitted effect of over 40% in size; also: potency is read from the fitted curve at half-maximal effect
Outline: as §1

[16] = target: Thyrotropin receptor (Homo sapiens) (UniProt P16473); test: qHTS assay to identify small molecule antagonists of the thyroid stimulating hormone receptor (TSHR) signaling pathway (AID 1259385; calls by dose curve; also: nearly all actives have a fitted effect of over 20% in size; also: potency is read from the fitted curve at half-maximal effect); conditions: TSHR-HEK293 cAMP HTRF, TSH-stimulated antagonist mode; activity change, negative = inhibition: at 92.4 µM (top of the series)
Outline: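 TSHR-HEK293 cells (800/well) plated 18 h, then compounds with Ro20-1724 and TSH at 1.5 ng/mL final, 30 min at room temperature. cAMP quantified by HTRF (cAMP-d2/anti-cAMP-cryptate, 1 h); 15 concentrations in triplicate.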

[17] = qHTS assay to identify small molecule antagonists of the estrogen receptor alpha (ER-alpha) signaling pathway using the BG1 cell line - cell viability counter screen (AID 743081); conditions: BG1Luc4E2 viability, CellTiter-Fluor, 22 h; activity change, negative = cytotoxicity: at 70.3 µM (top of the series);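 also: compound given together with 17beta-estradiol as the ER stimulus; nearly all actives have a fitted effect of over 45% in size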; also: potency is read from the fitted curve at half-maximal effect
[18] = qHTS assay to identify small molecule antagonists of the constitutive androstane receptor (CAR) signaling pathway - cell viability counter screen (AID 1224837); also: % is scaled to controls: 0 for no effect and ±100 for the full control effect; nearly all actives have a fitted effect of over 45% in size
Outline: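 Multiplexed cytotoxicity read-out for the CAR antagonist screen: double-stable HepG2-CYP2B6-hCAR cells co-treated with 50 nM CITCO (final) and compound over 15 concentrations, incubated 23 hr, then assessed by CellTiter-Fluor fluorescence.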
Tags tell the direction and shape of the fitted curve or compound fluorescence and quenching.

Chain of UniProt P16473 (P16473 whole entry, looked up): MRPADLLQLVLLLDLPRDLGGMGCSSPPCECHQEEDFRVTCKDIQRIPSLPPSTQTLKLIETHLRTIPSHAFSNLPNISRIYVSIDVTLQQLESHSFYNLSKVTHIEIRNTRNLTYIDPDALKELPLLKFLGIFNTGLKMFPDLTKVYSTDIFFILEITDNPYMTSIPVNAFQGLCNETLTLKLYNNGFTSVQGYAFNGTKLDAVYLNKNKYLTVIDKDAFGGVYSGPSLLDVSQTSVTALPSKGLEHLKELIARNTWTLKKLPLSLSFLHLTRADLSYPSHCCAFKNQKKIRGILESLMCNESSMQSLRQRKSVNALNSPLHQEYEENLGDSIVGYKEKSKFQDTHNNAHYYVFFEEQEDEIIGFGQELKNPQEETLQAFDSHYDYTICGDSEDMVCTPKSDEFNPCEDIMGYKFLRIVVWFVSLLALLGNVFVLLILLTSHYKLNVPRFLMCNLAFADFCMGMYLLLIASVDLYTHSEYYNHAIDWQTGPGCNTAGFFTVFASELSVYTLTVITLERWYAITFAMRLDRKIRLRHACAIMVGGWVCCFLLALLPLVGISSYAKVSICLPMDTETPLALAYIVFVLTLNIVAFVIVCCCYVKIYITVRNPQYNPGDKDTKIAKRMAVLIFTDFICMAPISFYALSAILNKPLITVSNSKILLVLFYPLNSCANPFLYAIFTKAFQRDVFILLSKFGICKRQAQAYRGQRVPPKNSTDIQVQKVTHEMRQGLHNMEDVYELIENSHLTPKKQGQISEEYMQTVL
Chain of UniProt P35869 (P35869 whole entry, looked up): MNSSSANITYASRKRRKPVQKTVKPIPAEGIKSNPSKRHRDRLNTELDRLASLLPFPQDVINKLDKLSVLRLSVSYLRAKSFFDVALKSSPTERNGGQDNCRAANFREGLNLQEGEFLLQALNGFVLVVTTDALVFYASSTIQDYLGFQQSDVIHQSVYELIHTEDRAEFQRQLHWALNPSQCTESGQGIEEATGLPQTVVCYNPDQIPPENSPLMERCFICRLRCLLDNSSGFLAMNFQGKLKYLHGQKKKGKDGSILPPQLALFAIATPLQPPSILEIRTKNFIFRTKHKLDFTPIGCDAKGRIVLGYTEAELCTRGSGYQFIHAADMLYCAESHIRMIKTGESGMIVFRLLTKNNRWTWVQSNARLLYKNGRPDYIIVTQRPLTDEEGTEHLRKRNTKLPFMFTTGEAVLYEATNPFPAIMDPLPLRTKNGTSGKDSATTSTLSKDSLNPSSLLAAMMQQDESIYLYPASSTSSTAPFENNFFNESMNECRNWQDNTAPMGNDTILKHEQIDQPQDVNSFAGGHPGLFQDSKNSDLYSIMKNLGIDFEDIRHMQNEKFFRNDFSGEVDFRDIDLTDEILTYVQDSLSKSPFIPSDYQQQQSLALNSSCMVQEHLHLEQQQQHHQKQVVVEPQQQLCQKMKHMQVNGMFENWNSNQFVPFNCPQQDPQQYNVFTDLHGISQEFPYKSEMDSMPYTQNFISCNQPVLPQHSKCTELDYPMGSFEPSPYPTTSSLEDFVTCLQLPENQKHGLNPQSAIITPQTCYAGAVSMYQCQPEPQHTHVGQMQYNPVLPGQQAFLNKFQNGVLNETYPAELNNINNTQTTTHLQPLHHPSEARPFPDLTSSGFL
Chain of UniProt P22303 (P22303 whole entry, looked up): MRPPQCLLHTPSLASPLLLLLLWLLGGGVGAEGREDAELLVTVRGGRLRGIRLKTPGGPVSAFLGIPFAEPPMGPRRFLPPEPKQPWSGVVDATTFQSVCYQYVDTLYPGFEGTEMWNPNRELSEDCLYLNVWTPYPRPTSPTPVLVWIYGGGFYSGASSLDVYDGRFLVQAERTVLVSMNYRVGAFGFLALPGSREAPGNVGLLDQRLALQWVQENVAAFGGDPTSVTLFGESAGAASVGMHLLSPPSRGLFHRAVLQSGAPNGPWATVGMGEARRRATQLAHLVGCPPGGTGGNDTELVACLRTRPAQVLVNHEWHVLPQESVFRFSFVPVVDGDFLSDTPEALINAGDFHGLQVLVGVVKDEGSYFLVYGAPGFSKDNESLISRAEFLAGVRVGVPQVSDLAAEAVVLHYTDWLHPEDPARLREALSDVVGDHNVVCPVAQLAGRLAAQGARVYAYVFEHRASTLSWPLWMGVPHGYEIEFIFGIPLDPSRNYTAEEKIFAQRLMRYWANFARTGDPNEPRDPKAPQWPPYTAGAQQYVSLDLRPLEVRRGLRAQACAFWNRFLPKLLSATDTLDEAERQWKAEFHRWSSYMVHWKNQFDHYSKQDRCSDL
Chain of UniProt P37231 (P37231 whole entry, looked up): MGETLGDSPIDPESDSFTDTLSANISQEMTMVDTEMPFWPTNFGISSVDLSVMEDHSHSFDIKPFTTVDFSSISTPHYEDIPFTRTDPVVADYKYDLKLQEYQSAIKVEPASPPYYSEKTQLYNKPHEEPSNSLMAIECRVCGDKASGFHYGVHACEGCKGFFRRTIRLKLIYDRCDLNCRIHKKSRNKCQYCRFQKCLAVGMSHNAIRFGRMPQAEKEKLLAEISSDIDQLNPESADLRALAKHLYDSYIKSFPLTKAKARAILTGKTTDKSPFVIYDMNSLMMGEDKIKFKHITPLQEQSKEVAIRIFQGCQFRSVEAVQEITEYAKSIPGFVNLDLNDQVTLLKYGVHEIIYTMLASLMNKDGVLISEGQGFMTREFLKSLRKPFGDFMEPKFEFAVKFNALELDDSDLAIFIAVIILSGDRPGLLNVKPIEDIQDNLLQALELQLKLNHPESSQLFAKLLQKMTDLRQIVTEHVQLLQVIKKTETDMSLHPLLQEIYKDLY

CC(C)CCCCCCCOC(=O)c1ccccc1C(=O)OCCCCCCCC(C)C
Potency [1]: inactive | Potency [2]: inconclusive: 54.9 µM [rising, single point] | Potency [3]: inactive | Potency [4]: inactive

OCCOCCO
activity change, negative = inhibition [5]: inconclusive: 0.423% [at 95 µM] | Potency [6]: active: 14.1 µM | Potency [7]: inconclusive: 50.1 µM [cytotoxic, single point]

CCOP(=S)(Oc1ccc([N+](=O)[O-])cc1)c1ccccc1 (stereo unspecified)
Potency [1]: inconclusive: 24.5 µM [fluorescent, partial curve, poor fit]

OC[C@@H](O)[C@H]1O[C@@H]2O[C@H](C(Cl)(Cl)Cl)O[C@@H]2[C@H]1O
Potency [8]: inconclusive: 0.0756 µM [rising, full curve, poor fit] | Potency [2]: inconclusive: 6.16 µM [rising, partial curve, poor fit] | Potency [3]: inactive | Potency [4]: inconclusive: 27.3 µM [falling, single point]

O=CNC(N1CCN(C(NC=O)C(Cl)(Cl)Cl)CC1)C(Cl)(Cl)Cl (stereo unspecified)
Potency [4]: inactive

Cc1cccc2sc3nncn3c12
Potency [9]: inconclusive: 43.3 µM [activator, partial curve] | Potency [10]: inconclusive: 61.6 µM [activator, partial curve, poor fit] | Potency [7]: inactive | Potency [11]: inconclusive: 63.3 µM [inhibitor, partial curve, poor fit]

CC(C)(C)c1cc(C(C)(C)C)c(O)c(C(C)(C)C)c1
Potency [12]: active: 101 µM

CCC/C=N/O
Potency [13]: inactive

COc1ccc(-c2ccccc2)cc1NNC(=O)OC(C)C
Potency [8]: inconclusive: 45.5 µM [cytotoxic, partial curve] | Potency [5]: inconclusive: 80.2 µM | activation [1]: inconclusive: -16.7% [at 78.9 µM] | Potency [4]: active: 35.8 µM | Potency [6]: inconclusive: 71.5 µM [cytotoxic, single point] | Potency [7]: inconclusive: 4.02 µM [cytotoxic, full curve] | Potency [14]: inconclusive: 80.2 µM [cytotoxic, single point]

Clc1cccc(C(Cl)(Cl)Cl)n1
Potency [8]: inactive | Potency [9]: inconclusive: 30.4 µM [activator, partial curve] and inconclusive: 61.1 µM [activator, single point] | Potency [1]: inactive | Potency [15]: inconclusive: 54.5 µM [activator, single point] and inconclusive: 54.9 µM [activator, single point] | Potency [10]: active: 54.5 µM and inconclusive: 54.9 µM [activator, single point] | Potency [16]: inconclusive: 54 µM [rising, partial curve, poor fit]

CCCC[N+](=O)[O-]
Potency [14]: inactive

CC(C)CBr
Potency [4]: inconclusive: 30.6 µM [falling, partial curve, poor fit]

COP(=O)(CCC(=O)NCO)OC
Potency [13]: inactive

CN1C(=O)CCS(=O)(=O)C1c1ccc(Cl)cc1 (stereo unspecified)
Potency [17]: inconclusive: 29.8 µM [rising, partial curve, poor fit] | Potency [7]: inactive

CCOP(=S)(OCC)SCSc1ccc(Cl)cc1
Potency [12]: inconclusive: 28.4 µM [rising, partial curve, poor fit] | Potency [15]: inactive | Potency [16]: active: 30.6 µM

N#Cc1ccncc1
Potency [2]: inconclusive: 70.5 µM [rising, single point] | Potency [12]: inconclusive: 57.7 µM [rising, single point]

CCOP(=O)(N=C1SCCS1)OCC
Potency [15]: inactive | Potency [11]: inconclusive: 44.8 µM [inhibitor, partial curve]

COc1cc2c(cc1OC)[C@@]13CCN4CC5=CCO[C@H]6CC(=O)N2[C@H]1[C@H]6[C@H]5C[C@H]43
Potency [13]: inconclusive: 54.5 µM [cytotoxic, partial curve] | Potency [6]: inconclusive: 30.6 µM [cytotoxic, partial curve]

CNC(=O)Oc1ccccc1C(C)C
Potency [2]: inactive | Potency [4]: inactive | Potency [6]: inactive

C[C@@H](Oc1ccc(Cl)cc1Cl)C(=O)O
Potency [18]: inactive

CCNc1nc(NC(C)C)nc(OC)n1
Potency [9]: inconclusive: 30.6 µM [activator, partial curve, poor fit] | Potency [18]: inactive

Cc1cccc(C)c1NC1=NCCCS1
Potency [8]: inconclusive: 16.9 µM [cytotoxic, partial curve] | Potency [5]: inactive | Potency [17]: inconclusive: 29.8 µM [cytotoxic, single point]

CCCCn1cc[n+](C)c1C
Potency [17]: inconclusive: 76.5 µM [rising, partial curve, poor fit] | Potency [3]: inactive | Potency [18]: inactive | Potency [13]: inactive

CC1(C)COP(Oc2ccccc2)OC1
Potency [7]: inconclusive: 61.1 µM [rising, single point]

CN1C[C@@H](NS(=O)(=O)N(C)C)C[C@@H]2c3cccc4c3c(cn4C)C[C@H]21
Potency [13]: inconclusive: 15 µM [cytotoxic, partial curve, poor fit] | Potency [11]: inconclusive: 9.77 µM [inhibitor, full curve]

COc1cc(C[C@@H](C)N)c(OC)cc1C
Potency [5]: inactive | Potency [3]: inconclusive: 18.4 µM [cytotoxic, single point] | Potency [4]: inactive | Potency [12]: inactive | Potency [7]: inconclusive: 82.3 µM [cytotoxic, single point]

N#CC(Br)(Br)C(N)=O
Potency [8]: inconclusive: 54.9 µM [cytotoxic, partial curve, poor fit] | Potency [15]: inconclusive: 21.9 µM [activator, single point] | Potency [10]: inconclusive: 21.9 µM [activator, single point]

NC1=NC(=O)C(c2ccccc2)O1 (stereo unspecified)
Potency [17]: inactive

c1ccc2c(c1)CCCC2
Potency [1]: inactive | Potency [18]: inactive

Cc1cnc[nH]1
Potency [2]: inconclusive: 47.1 µM [rising, partial curve, poor fit]

OCc1ccco1
Potency [2]: inconclusive: 24.5 µM [cytotoxic, single point] | Potency [16]: inactive

N#Cc1ccccn1
Potency [9]: inconclusive: 63.7 µM [activator, single point] | Potency [2]: inconclusive: 11.4 µM [rising, partial curve, poor fit]

CCSC(C)CC1CC(=O)C(/C(CC)=N/OC/C=C/Cl)=C(O)C1 (stereo unspecified)
Potency [4]: active: 2.11 µM | Potency [15]: inactive | Potency [14]: inactive | Potency [11]: inconclusive: 43.6 µM [inhibitor, single point]

C=CC(Cl)CCl (stereo unspecified)
activation [1]: inconclusive: 4.27% [at 78.9 µM] | Potency [10]: inconclusive: 22.4 µM [activator, partial curve, poor fit]

CCC(C)c1cc(C(C)(C)C)cc(-n2nc3ccccc3n2)c1O (stereo unspecified)
Potency [15]: inactive | Potency [13]: inactive
